Test results reported in patent US12116388B2, “Amylin receptor agonists” (Novo Nordisk A/S, priority 2022, dated 2024).
At least one compound was matched to its structure with a doubt left. Starred links: 1 amine or outer side, 2 acyl side, 3 side chain; linkers in the order of their positions; H or OH if unused. Residues, ends and D or L forms follow the SMILES beside them. *: point of attachment. C18 diacid = O=C(O)CCCCCCCCCCCCCCCCC(=O)*; γGlu = O=C(O)[C@H](CCC(=O)[*:2])N[*:1]

Test system: Sprague Dawley (SD) rats
Test: Acute food intake in ad libitum fed rat model
Type: in vivo
Details: single s.c. administration, negative value = reduced food intake

CC[C@H](C)[C@H](NC(=O)[C@@H]1CCCN1C(=O)CNC(=O)[C@H](Cc1ccccc1)NC(=O)[C@H](Cc1c[nH]cn1)NC(=O)[C@H](Cc1c[nH]cn1)NC(=O)[C@H](CC(C)C)NC(=O)[C@H](Cc1ccccc1)NC(=O)[C@H](CCC(=O)O)NC(=O)[C@H](C)NC(=O)[C@H](CC(C)C)NC(=O)[C@H](CCCNC(=N)N)NC(=O)[C@H](C)NC(=O)[C@@H](NC(=O)[C@H](CCC(N)=O)NC(=O)[C@H](C)NC(=O)[C@@H](NC(=O)[C@H](CO)NC(=O)[C@H](CC(C)C)NC(=O)[C@H](Cc1c[nH]cn1)NC(=O)[C@H](CO)NC(=O)[C@H](C)NC(=O)CC[C@H](NC(=O)CCCCCCCCCCCCCCCCC(=O)O)C(=O)O)[C@@H](C)O)[C@@H](C)O)C(=O)N[C@@H](CC(C)C)C(=O)N1CCC[C@H]1C(=O)N1CCC[C@H]1C(=O)N[C@H](C(=O)N[C@@H](CC(=O)O)C(=O)N[C@H](C(=O)NCC(=O)N[C@@H](CO)C(=O)N[C@@H](CCC(=O)O)C(=O)N[C@H](C(=O)N[C@@H](Cc1ccc(O)cc1)C(N)=O)[C@@H](C)O)C(C)C)[C@@H](C)O [Compound 42, N^1-[(4S)-4-carboxy-4-(17-carboxyheptadecanoylamino)butanoyl]-[Ala1,Ser2,His3,Leu4,Ser5,Ala7,Gln8,Ala10,Glu14,His17,Pro25,Pro28,Pro29,Asp31,Glu35],des-(19-22)-human amylin] ({C18 diacid-γGlu}-ASHLSTAQTARLAEFLHHFGPILPPTDVGSETY-NH2)
Food intake relative to vehicle (%) 0-24 hr, 3 nmol/kg: −86% | Food intake relative to vehicle (%) 24-48 hr, 3 nmol/kg: −77% | Food intake relative to vehicle (%) 48-72 hr, 3 nmol/kg: −25%

CC[C@H](C)[C@H](NC(=O)[C@@H]1CCCN1C(=O)CNC(=O)[C@H](Cc1ccccc1)NC(=O)[C@H](Cc1c[nH]cn1)NC(=O)[C@H](Cc1c[nH]cn1)NC(=O)[C@H](CC(C)C)NC(=O)[C@H](Cc1ccccc1)NC(=O)[C@H](CCC(=O)O)NC(=O)[C@H](C)NC(=O)[C@H](CC(C)C)NC(=O)[C@H](CCCNC(=N)N)NC(=O)[C@H](C)NC(=O)[C@@H](NC(=O)[C@H](CCC(N)=O)NC(=O)[C@H](C)NC(=O)[C@@H](NC(=O)[C@H](CO)NC(=O)[C@H](CC(C)C)NC(=O)[C@H](CCC(=O)O)NC(=O)CNC(=O)[C@H](C)NC(=O)CC[C@H](NC(=O)CCCCCCCCCCCCCCCCC(=O)O)C(=O)O)[C@@H](C)O)[C@@H](C)O)C(=O)N[C@@H](CC(C)C)C(=O)N1CCC[C@H]1C(=O)N1CCC[C@H]1C(=O)N[C@H](C(=O)N[C@@H](CC(=O)O)C(=O)N[C@H](C(=O)NCC(=O)N[C@@H](CO)C(=O)N[C@@H](CCC(=O)O)C(=O)N[C@H](C(=O)N1CCC[C@H]1C(N)=O)[C@@H](C)O)C(C)C)[C@@H](C)O [Compound 16, N^1-[(4S)-4-carboxy-4-(17-carboxyheptadecanoylamino)butanoyl]-[Ala1,Gly2,Glu3,Leu4,Ser5,Ala7,Gln8,Ala10,Glu14,His17,Pro25,Pro28,Pro29,Asp31,Glu35,Pro37],des-(19-22)-human amylin] ({C18 diacid-γGlu}-AGELSTAQTARLAEFLHHFGPILPPTDVGSETP-NH2)
Food intake relative to vehicle (%) 0-24 hr, 3 nmol/kg: −76% | Food intake relative to vehicle (%) 24-48 hr, 3 nmol/kg: −63% | Food intake relative to vehicle (%) 48-72 hr, 3 nmol/kg: −9%

CC[C@H](C)[C@H](NC(=O)[C@@H]1CCCN1C(=O)CNC(=O)[C@H](Cc1ccccc1)NC(=O)[C@H](CC(N)=O)NC(=O)[C@H](CC(=O)O)NC(=O)[C@H](CO)NC(=O)[C@H](CO)NC(=O)[C@H](Cc1c[nH]cn1)NC(=O)[C@H](Cc1c[nH]cn1)NC(=O)[C@H](CC(C)C)NC(=O)[C@H](Cc1ccccc1)NC(=O)[C@H](CCC(=O)O)NC(=O)[C@H](C)NC(=O)[C@H](CC(C)C)NC(=O)[C@H](CCCNC(=N)N)NC(=O)[C@H](C)NC(=O)[C@@H](NC(=O)[C@H](CCC(N)=O)NC(=O)[C@H](C)NC(=O)[C@@H](NC(=O)[C@H](CO)NC(=O)[C@H](CC(C)C)NC(=O)[C@H](Cc1c[nH]cn1)NC(=O)[C@H](CO)NC(=O)[C@H](C)NC(=O)CC[C@H](NC(=O)CCCCCCCCCCCCCCCCC(=O)O)C(=O)O)[C@@H](C)O)[C@@H](C)O)C(=O)N[C@@H](CC(C)C)C(=O)N1CCC[C@H]1C(=O)N1CCC[C@H]1C(=O)N[C@H](C(=O)N[C@@H](CC(=O)O)C(=O)N[C@H](C(=O)NCC(=O)N[C@@H](CO)C(=O)N[C@@H](CC(N)=O)C(=O)N[C@H](C(=O)N1CCC[C@H]1C(N)=O)[C@@H](C)O)C(C)C)[C@@H](C)O [Compound 14, N^1-[(4S)-4-carboxy-4-(17-carboxyheptadecanoylamino)butanoyl]-[Ala1,Ser2,His3,Leu4,Ser5,Ala7,Gln8,Ala10,Glu14,His17,Asp21,Pro25,Pro28,Pro29,Asp31,Pro37]-human amylin] ({C18 diacid-γGlu}-ASHLSTAQTARLAEFLHHSSDNFGPILPPTDVGSNTP-NH2)
Food intake relative to vehicle (%) 0-24 hr, 3 nmol/kg: −88% | Food intake relative to vehicle (%) 24-48 hr, 3 nmol/kg: −84% | Food intake relative to vehicle (%) 48-72 hr, 3 nmol/kg: −21%

CC[C@H](C)[C@H](NC(=O)[C@@H]1CCCN1C(=O)CNC(=O)[C@H](Cc1ccccc1)NC(=O)[C@H](Cc1c[nH]cn1)NC(=O)[C@H](Cc1c[nH]cn1)NC(=O)[C@H](CC(C)C)NC(=O)[C@H](Cc1ccccc1)NC(=O)[C@H](CCC(=O)O)NC(=O)[C@H](C)NC(=O)[C@H](CC(C)C)NC(=O)[C@H](CCCNC(=N)N)NC(=O)[C@H](C)NC(=O)[C@@H](NC(=O)[C@H](CCC(N)=O)NC(=O)[C@H](C)NC(=O)[C@@H](NC(=O)[C@H](CO)NC(=O)[C@H](CC(C)C)NC(=O)[C@H](Cc1c[nH]cn1)NC(=O)[C@H](CO)NC(=O)[C@H](C)NC(=O)CC[C@H](NC(=O)CC[C@H](NC(=O)CCCCCCCCCCCCCCCCC(=O)O)C(=O)O)C(=O)O)[C@@H](C)O)[C@@H](C)O)C(=O)N[C@@H](CC(C)C)C(=O)N1CCC[C@H]1C(=O)N1CCC[C@H]1C(=O)N[C@H](C(=O)N[C@@H](CC(=O)O)C(=O)N[C@H](C(=O)NCC(=O)N[C@@H](CO)C(=O)N[C@@H](CCC(=O)O)C(=O)N[C@H](C(=O)N1CCC[C@H]1C(N)=O)[C@@H](C)O)C(C)C)[C@@H](C)O [Compound 17, N^1-[(4S)-4-carboxy-4-[[(4S)-4-carboxy-4-(17-carboxyheptadecanoylamino)butanoyl]amino]butanoyl]-[Ala1,Ser2,His3,Leu4,Ser5,Ala7,Gln8,Ala10,Glu14,His17,Pro25,Pro28,Pro29,Asp31,Glu35,Pro37],des-(19-22)-human amylin] ({C18 diacid-γGlu-γGlu}-ASHLSTAQTARLAEFLHHFGPILPPTDVGSETP-NH2)
Food intake relative to vehicle (%) 0-24 hr, 3 nmol/kg: −78% | Food intake relative to vehicle (%) 24-48 hr, 3 nmol/kg: −90% | Food intake relative to vehicle (%) 48-72 hr, 3 nmol/kg: −25%
